Data on two molecules can be found in patent publication US10376514B2, “Therapeutic thiophene-, furan-, and pyridine-fused azolopyrimidin-5-(6H)-ones” (Dart Neuroscience (Cayman) Ltd., priority 2012, dated 2019).

The target in the assay is full-length recombinant NH-terminal GST tagged human PDE1B enzyme (Homo sapiens (Human), UniProt Q01064). Kind of assay: PDE1B inhibitory assay (IMAP TR-FRET). (In TR-FRET formats the signal depends on donor and acceptor labels being close together.)

The term IC50 denotes the concentration that gives 50% inhibition. Consider `COc1ccc(Cn2c(=O)n3ncnc3c3cc(CN4CCOCC4(C)C)cnc32)cc1` [Example 222], for which the IC50 was 100 to 1000 nM.

Take `C[C@@H]1CN(Cc2cnc3c(c2)c2ncnn2c(=O)n3Cc2cccc(I)c2)C[C@H](C)O1` [Example 284]: the “PDE1B pIC50” value (negative log of half-maximal molar inhibitory concentration, 200 nM FAM-cAMP, Calmodulin, CaCl2) was 6-7.
